Counter-ions that a name gives are not always drawn. The list shows a part of the results. Repeats are few or missing, and single values can be far off.
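Throughout, for B-score of Nano/Firefly luminescence ratio, V2 Mef2d microexon reporter: compounds at 4 µM (PKI library 0.5 µM) on Dox-inducible N2A Flp-In cells with PEST-tagged luciferases, 384-well plates, B-score from per-plate median-polish residual over median absolute residual.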

The first test deals with Mef2d microexon dual Nano/Firefly luciferase splicing reporter in Neuro-2a cells. Description: B-score of Firefly/Nano luminescence ratio, V1 Mef2d microexon reporter (B-score (plate-normalised)); higher = more Mef2d microexon inclusion. The note with it: 24 h.
Regarding `O=C1C=C2C=C[C@@H]3C[C@@]2(O1)[C@H]1CCCCN31` [Securinine] (4 µM), the B-score is -3.71.

On to `O=C1NC(=O)C(=CC=Cc2ccccc2)C(=O)N1` (4 µM), for which the B-score was -4.22.

As to `COc1ccc(/C=C/C=C2C(=O)NC(=O)NC2=O)cc1` (4 µM), the B-score is -1.45.

In the case of `CN1C[C@@H](NS(=O)(=O)N(C)C)C[C@@H]2c3cccc4[nH]cc(c34)C[C@H]21` [Compound 71] (0.5 µM), the B-score was -5.67.

With `CCOc1cc(CN2CCN(c3cccc(Cl)c3)CC2)ccc1O` (4 µM), the B-score is 1.94.

For the compound `COc1ccc(C=C[N+](=O)[O-])cc1OC` (4 µM), the B-score was found to be 5.06.

Consider `Cc1[nH]nc2ccc(-c3cncc(OC[C@@H](N)Cc4c[nH]c5ccccc45)c3)cc12` (0.5 µM), for which the B-score is 9.86.

`CCOc1c(I)cc(I)cc1C=C(C#N)C#N` (4 µM): the B-score was -1.69.

Turning to `CNC(=O)ON=C(N)Cc1csc2ccc(Cl)cc12` (4 µM), the B-score was found to be 13.5.

For `COc1ccc2c(c1)[nH]c1c(C)nccc12` [Harmine hydrochloride] (4 µM), the B-score turned out to be 3.37.

In the case of `COc1cc2c(c(OC)c1OC)-c1ccc(OC)c(=O)cc1[C@@H](NC(C)=O)CC2` [Colchicine] (4 µM), the B-score is -4.32.

`C[N+]1(C)[C@@H]2CC[C@H]1C[C@@H](OC(=O)C(CO)c1ccccc1)C2` (some centres undefined) [Atropine methyl bromide] (4 µM): the B-score was -8.27.

`CCn1cnc2c(Nc3cccc(Cl)c3)nc(N[C@@H]3CCCC[C@@H]3N)nc21` (4 µM): the B-score is 10.7.

As for `CC[C@H]1CN2CCc3cc(OC)c(OC)cc3[C@@H]2C[C@@H]1C[C@H]1NCCc2cc(OC)c(OC)cc21` [Emetine dihydrochloride hydrate] (4 µM), the B-score is -2.77.

In the case of `C[C@@H]1C[C@@H]([C@H](O)CC2CC(=O)NC(=O)C2)C(=O)[C@@H](C)C1` [Cycloheximide] (4 µM), the B-score is -7.34.

For the compound `CN1C(=O)C(=CNc2ccc(Cl)cc2)C(=O)N(C)C1=O` (4 µM), the B-score was 4.81.

Turning to `CNC(=O)ON=C(N)Cc1csc2ccccc12` (4 µM), the B-score came to 6.41.

With `Cc1ccc2c(c1)Cc1c(C(=O)NN3CCCCC3)nn(-c3ccc(Cl)cc3Cl)c1-2` (4 µM), the B-score was found to be 4.44.

Consider `C[C@@H]1CC[C@H]2[C@@H](C)C(=O)O[C@@H]3O[C@@]4(C)CC[C@@H]1[C@]32OO4` [Artemisinin] (4 µM), for which the B-score was 6.07.

With `CC(=O)C1=C(O)[C@@H]2[C@H]3c4c[nH]c5cccc(c45)C[C@H]3C(C)(C)N2C1=O` [Cyclopiazonic Acid] (4 µM), the B-score came out at 10.5.

Regarding `Cc1c(Cc2ccc(F)cc2)c(=O)oc2cc(OC(=O)N(C)C)ccc12` (4 µM), the B-score is 2.59.

Regarding `N#CC(C#N)=Cc1ccc(Cl)c([N+](=O)[O-])c1` (4 µM), the B-score is -0.981.

On to `CC(=O)OC(C)(C)C=CC(=O)[C@](C)(O)[C@H]1[C@H](O)C[C@@]2(C)[C@@H]3CC=C4[C@@H](CC[C@H](O)C4(C)C)[C@]3(CO)C(=O)C[C@]12C` (4 µM), for which the B-score turned out to be 33.7.

As for `COc1cc(CN2CCN(c3cccc(Cl)c3)CC2)ccc1O` (4 µM), the B-score was 2.8.

Consider `O=[N+]([O-])c1ccc(N2CCc3ccccc3C2)c2ccncc12` (4 µM), for which the B-score was -0.923.

For the compound `C=C(C)[C@H]1Cc2c(ccc3c2O[C@@H]2COc4cc(OC)c(OC)cc4[C@@H]2C3=O)O1` [Rotenone] (4 µM), the B-score was -9.22.

Turning to `CC1(C)C(Br)=C(Br)C(=O)C1(Br)Br` (4 µM), the B-score worked out at 0.028.

Another test shares this test system. The experiment in a line: B-score of Nano/Firefly luminescence ratio, V2 Mef2d microexon reporter (B-score (plate-normalised)); higher = more Mef2d microexon inclusion. The note with it: 24 h.
Regarding `O=C1C=C2C=C[C@@H]3C[C@@]2(O1)[C@H]1CCCCN31` [Securinine] (4 µM), the B-score was -5.84.

`O=C1NC(=O)C(=CC=Cc2ccccc2)C(=O)N1` (4 µM): the B-score is -3.51.

For the compound `COc1ccc(/C=C/C=C2C(=O)NC(=O)NC2=O)cc1` (4 µM), the B-score is -6.64.

In the case of `CN1C[C@@H](NS(=O)(=O)N(C)C)C[C@@H]2c3cccc4[nH]cc(c34)C[C@H]21` [Compound 71] (0.5 µM), the B-score was -10.

In the case of `CCOc1cc(CN2CCN(c3cccc(Cl)c3)CC2)ccc1O` (4 µM), the B-score is 4.95.

As to `COc1ccc(C=C[N+](=O)[O-])cc1OC` (4 µM), the B-score worked out at 8.54.

Take `Cc1[nH]nc2ccc(-c3cncc(OC[C@@H](N)Cc4c[nH]c5ccccc45)c3)cc12` (0.5 µM): the B-score stood at 6.21.

With `CCOc1c(I)cc(I)cc1C=C(C#N)C#N` (4 µM), the B-score is -5.03.

Regarding `CNC(=O)ON=C(N)Cc1csc2ccc(Cl)cc12` (4 µM), the B-score is 2.82.

On to `COc1ccc2c(c1)[nH]c1c(C)nccc12` [Harmine hydrochloride] (4 µM), for which the B-score is 5.6.

On to `COc1cc2c(c(OC)c1OC)-c1ccc(OC)c(=O)cc1[C@@H](NC(C)=O)CC2` [Colchicine] (4 µM), for which the B-score was -9.14.

`C[N+]1(C)[C@@H]2CC[C@H]1C[C@@H](OC(=O)C(CO)c1ccccc1)C2` (some centres undefined) [Atropine methyl bromide] (4 µM): the B-score was -5.87.

With `CCn1cnc2c(Nc3cccc(Cl)c3)nc(N[C@@H]3CCCC[C@@H]3N)nc21` (4 µM), the B-score came to 3.51.

As for `CC[C@H]1CN2CCc3cc(OC)c(OC)cc3[C@@H]2C[C@@H]1C[C@H]1NCCc2cc(OC)c(OC)cc21` [Emetine dihydrochloride hydrate] (4 µM), the B-score was -7.95.

For the compound `C[C@@H]1C[C@@H]([C@H](O)CC2CC(=O)NC(=O)C2)C(=O)[C@@H](C)C1` [Cycloheximide] (4 µM), the B-score was -8.4.

Take `CN1C(=O)C(=CNc2ccc(Cl)cc2)C(=O)N(C)C1=O` (4 µM): the B-score turned out to be 1.31.

For the compound `CNC(=O)ON=C(N)Cc1csc2ccccc12` (4 µM), the B-score came to 2.51.

For `Cc1ccc2c(c1)Cc1c(C(=O)NN3CCCCC3)nn(-c3ccc(Cl)cc3Cl)c1-2` (4 µM), the B-score worked out at 5.96.

With `C[C@@H]1CC[C@H]2[C@@H](C)C(=O)O[C@@H]3O[C@@]4(C)CC[C@@H]1[C@]32OO4` [Artemisinin] (4 µM), the B-score came out at 5.49.

For the compound `CC(=O)C1=C(O)[C@@H]2[C@H]3c4c[nH]c5cccc(c45)C[C@H]3C(C)(C)N2C1=O` [Cyclopiazonic Acid] (4 µM), the B-score stood at 4.78.

As for `Cc1c(Cc2ccc(F)cc2)c(=O)oc2cc(OC(=O)N(C)C)ccc12` (4 µM), the B-score amounted to 4.49.

Take `N#CC(C#N)=Cc1ccc(Cl)c([N+](=O)[O-])c1` (4 µM): the B-score was -6.27.

Regarding `CC(=O)OC(C)(C)C=CC(=O)[C@](C)(O)[C@H]1[C@H](O)C[C@@]2(C)[C@@H]3CC=C4[C@@H](CC[C@H](O)C4(C)C)[C@]3(CO)C(=O)C[C@]12C` (4 µM), the B-score came out at 6.14.

On to `COc1cc(CN2CCN(c3cccc(Cl)c3)CC2)ccc1O` (4 µM), for which the B-score is 5.3.

On to `O=[N+]([O-])c1ccc(N2CCc3ccccc3C2)c2ccncc12` (4 µM), for which the B-score was -5.43.

As for `C=C(C)[C@H]1Cc2c(ccc3c2O[C@@H]2COc4cc(OC)c(OC)cc4[C@@H]2C3=O)O1` [Rotenone] (4 µM), the B-score is -17.1.

As for `CC1(C)C(Br)=C(Br)C(=O)C1(Br)Br` (4 µM), the B-score is -7.76.

Source of the values: the supplement of paper PMC11283458.
